# From PMC4336329 (PLoS ONE, 2015)
# The whole screen tested about 310,000 compounds, of which about 2,200 (0.71%) showed an effect of 50% or more. Effects have a minus sign here. This is one part of the list.
# Target: human ether-à-go-go-related gene (hERG) potassium channel (human, UniProt Q12809)
# Test: primary screen, population patch clamp on CHO cells stably expressing hERG
# Chain of human ether-à-go-go-related gene (hERG) potassium channel (Q12809 whole entry, looked up): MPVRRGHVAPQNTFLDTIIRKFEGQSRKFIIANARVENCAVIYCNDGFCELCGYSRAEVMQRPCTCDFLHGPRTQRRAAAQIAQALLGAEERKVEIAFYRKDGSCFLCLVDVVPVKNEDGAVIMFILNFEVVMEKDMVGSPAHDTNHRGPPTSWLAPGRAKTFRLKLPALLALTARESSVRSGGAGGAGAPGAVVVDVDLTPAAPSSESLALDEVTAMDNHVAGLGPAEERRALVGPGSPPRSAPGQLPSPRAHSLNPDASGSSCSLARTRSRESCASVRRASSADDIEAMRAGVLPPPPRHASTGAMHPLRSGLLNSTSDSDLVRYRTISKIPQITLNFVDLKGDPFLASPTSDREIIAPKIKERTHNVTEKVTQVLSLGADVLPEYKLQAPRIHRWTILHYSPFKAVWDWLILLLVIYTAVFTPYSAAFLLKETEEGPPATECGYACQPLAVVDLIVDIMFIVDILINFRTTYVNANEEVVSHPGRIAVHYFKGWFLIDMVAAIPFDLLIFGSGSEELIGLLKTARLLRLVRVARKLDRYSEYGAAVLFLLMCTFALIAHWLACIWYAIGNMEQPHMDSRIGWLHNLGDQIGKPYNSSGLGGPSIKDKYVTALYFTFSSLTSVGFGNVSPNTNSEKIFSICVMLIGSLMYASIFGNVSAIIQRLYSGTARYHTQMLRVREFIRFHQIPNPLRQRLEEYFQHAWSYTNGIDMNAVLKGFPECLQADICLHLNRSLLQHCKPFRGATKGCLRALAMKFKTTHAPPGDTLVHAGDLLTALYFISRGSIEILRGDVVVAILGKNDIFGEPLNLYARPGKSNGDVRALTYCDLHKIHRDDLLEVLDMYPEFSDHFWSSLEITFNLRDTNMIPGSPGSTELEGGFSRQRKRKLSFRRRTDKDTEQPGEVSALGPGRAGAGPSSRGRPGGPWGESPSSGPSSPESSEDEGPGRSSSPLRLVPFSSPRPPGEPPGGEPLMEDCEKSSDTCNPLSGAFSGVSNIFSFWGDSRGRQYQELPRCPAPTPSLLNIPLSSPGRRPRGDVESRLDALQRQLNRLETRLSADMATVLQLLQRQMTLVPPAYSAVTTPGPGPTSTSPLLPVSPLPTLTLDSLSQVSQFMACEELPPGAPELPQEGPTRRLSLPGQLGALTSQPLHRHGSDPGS
row,SMILES,"hERG current change (%, negative = inhibition) at 1uM [%]"
1,CCOc1ccc(C(=O)N2CCN(Cc3ccccc3)CC2)cc1,-60.3
2,O=C(O)COc1ccc(Br)cc1/C=N/O,10.9
3,CC(C)=C(NC(=O)c1ccccc1)C(=O)NCCc1nc2ccccc2[nH]1,19.8
4,COc1ccc(CCN(Cc2cccs2)S(=O)(=O)c2ccc(C(=O)O)cc2)cc1OC,21.6
5,CCOC(=O)C1(Cc2ccccc2C)CCCN(C(=O)c2ccc(CSC)o2)C1 (stereo not drawn),-0.38
6,CCCc1cc(=O)[nH]c2nnc(SCC(=O)Nc3ccc4c(c3)OCCO4)n12,11.9
7,Cl.c1coc(CNc2ncnc3ccccc23)c1,13.2
8,CCN(CC)c1ccc(C(=O)N/N=C(\C)c2ccc(O)cc2)cc1,16.5
9,COC(=O)C[C@H]1c2cc(F)ccc2S(=O)(=O)N1c1ccccc1,12.2
10,Cc1c(C)c2ccc(OC(C)C(=O)NCc3ccccn3)cc2oc1=O (stereo not drawn),11.2
11,O=C1N=C(N2CCCCC2)S/C1=C/C1=Cc2ccccc2OC1,4.65
12,CCSc1ccc(-c2ccco2)nn1,8.6
13,O=P(O)(CP(=O)(c1ccccc1)c1ccccc1)c1ccccc1O,16.4
14,O=C(CCC1CCCC1)Nc1ccc(Br)cn1,10.5
15,COc1ccc2c(c1)CCC/C2=N\NC(=O)c1ccoc1C,7.69
16,O=C(NCC(c1ccco1)N1CCN(c2ccc(F)cc2)CC1)C(=O)NC1CC1 (stereo not drawn),-2.57
17,Cc1cc(C)nc(NC(=O)CSc2nn(C)c(=S)s2)n1,7.69
18,O=C(CSc1nc(O)cc(=O)[nH]1)N1CCOCC1,9.24
19,CCc1ccc(NC(=O)CSc2nc(CSc3ccc(C)cc3)cc(=O)[nH]2)cc1,8.53
20,C=CCC1(CN2CCCCCC2=O)C(=O)NC(=O)NC1=O,13.8
21,CCCCN(C(=O)c1ccc([N+](=O)[O-])o1)c1c(N)n(CCCC)c(=O)[nH]c1=O,-3.98
22,NC(=O)c1ccc(NC(=O)COC(=O)c2c3c(nc4ccccc24)/C(=C\c2cccs2)CCC3)cc1,2.5
23,CN(C)CC1(c2ccccc2)CCCC1.Cl,-0.534
24,Cc1ccc(SCCC(=O)NCc2ccco2)cc1,10.5

row,SMILES,"hERG current change (%, negative = inhibition) at 1uM [%]"
1,COc1ccccc1CNC(=O)C(C)n1nc(C)c2c(C)n(-c3ccccc3)nc2c1=O (stereo not drawn),12.5
2,CCN(CC)c1ccc(C=C2C(=O)OC3(CCCCC3)OC2=O)cc1,14.4
3,N#Cc1cc(O)c(-n2nnc3ccccc32)cc1C#N,8.84
4,Cc1oc(-c2cccs2)nc1CS(=O)CC(=O)NC1CCCCCC1 (stereo not drawn),15.1
5,CCCn1c(N)c(C(=O)COC(=O)c2cccc(S(=O)(=O)N3CCOCC3)c2)c(=O)[nH]c1=O,5.86
6,Cc1occc1C(=O)NCc1ccc(C(=O)O)o1,-0.366
7,Cc1cc(C)cc(NS(=O)(=O)c2ccc3[nH]c(=O)ccc3c2)c1,11.7
8,Cc1ccc(C(=O)NNC(=O)c2n[nH]c(=O)c3ccccc23)cc1C,5.71
9,COC(=O)CCCNC(=O)CC1C(=O)NCCN1Cc1ccoc1 (stereo not drawn),16.6
10,Cn1cccc1/C=C(\C#N)c1ccccc1,6.62
11,CCO.Cc1ccc(NC(=O)c2sc3nc(N)c(C#N)cc3c2N)cc1,-6.63
12,O=C(Nc1ccccc1C(F)(F)F)Nc1cccc2ccccc12,9.35
13,O=C(COc1nncc2ccccc12)NCCC1=CCCCC1,9.4
14,COc1ccc(C(C#N)c2ccc(Cl)nn2)cc1 (stereo not drawn),8.62
15,O=C1NCC(O)=C1C=NC12CC3CC(CC(C3)C1)C2 [4246017],13.1
16,Cc1ccc(Nc2c(F)c(F)c(F)c(F)c2C(=O)O)cc1,7.23
17,Cc1cc(N2CCN(C(=O)c3ccco3)CC2)n2ncnc2n1,-7.2
18,COc1cc(C(=O)NNC(=O)C2CCC2)cc(OC)c1OC,3.15
19,CCOC(=O)c1cn(CC(=O)Nc2ccccc2C(=O)OCC)nn1,-2.67
20,CCO[C@@H]1OC(C(N)=O)=C[C@H](C(C)(C)C)[C@H]1CCCO,20
21,COC(=O)N/N=C(\C)c1cccc(C(F)(F)F)c1,7.29
22,Br.COC(=O)C1=CCCN(C)C1,3.9
23,Cc1ccc(-c2c(C)sc(NC(=O)C3C4CCC(O4)C3C(=O)O)c2C(=O)OC(C)C)cc1 (stereo not drawn),6.73
24,O=C(NCCc1ccccc1)C1(S(=O)(=O)c2ccc(Cl)cc2)CC1,9.37

row,SMILES,"hERG current change (%, negative = inhibition) at 1uM [%]"
1,O=c1cc(N2CCN(c3ccc(F)cc3)CC2)[nH]c(=O)n1C1CCCCC1,8.74
2,CCc1ccc2oc(C(=O)Nc3nonc3CC)c(C)c2c1,13.4
3,CC(=O)Nc1c(-c2ccccc2)nc2ccc(Cl)cn12,7.89
4,O=C(CSc1nnc2ccccn12)Nc1ncc(Cl)cc1Cl,-0.579
5,COc1ccc2oc(C(=O)OCC(=O)N3CCCCC3)c(C)c2c1,4.73
6,CCNC(=S)N(CCN(CC)CC)Cc1cc2cc3c(cc2[nH]c1=O)OCO3,11.2
7,CC(COc1cccc2ccccc12)CN1CCN(C)CC1 (stereo not drawn),-5.17
8,c1ccc(-c2nnc(NC3=NCCC3)o2)cc1,17.1
9,CCCCn1c(O)c(/C=N/N2CCOCC2)c(=O)[nH]c1=S,12.9
10,O=C(NCCOc1ccccc1)C1CCC(=O)N(Cc2ccc(Cl)cc2)C1 (stereo not drawn),-0.988
11,Cc1ccc(C(=O)Oc2oc(-c3ccccc3)nc2C=Nc2ccc(N(C)C)cc2)cc1,13.4
12,CC1C(=O)C(C)(C)C(=O)OC1c1ccccc1 (stereo not drawn),10.4
13,O=S(=O)(c1cc(F)ccc1F)N1CCN(c2ncccn2)CC1,3.1
14,C=CCNC(=O)C(=O)NCC1CCCN1CC (stereo not drawn),2.83
15,CC(=O)c1cnn(-c2ccccc2)c1C,17.7
16,COc1cc(C)c(NC(=O)C(=S)N2CCCC2)cc1C,11.5
17,Cc1c(NC(=O)c2cc(-c3ccccc3O)on2)c(=O)n(-c2ccccc2)n1C,6.09
18,Fc1ccc(-c2nnc(CSc3nnc(-c4cccs4)o3)o2)cc1,-3.91
19,COc1ccc(OC)c(/C=N/NC(=O)c2ccc(=O)[nH]n2)c1,9.61
20,CNC(=S)NNC(=O)c1sccc1OCc1ccc(Cl)cc1Cl,6.61
21,O=C(C(Cc1ccccc1)N1C(=O)C2C3CCC(C3)C2C1=O)N1CCCCC1 (stereo not drawn),12.5
22,Fc1ccc(N2CCN(c3nc(-c4ccco4)cc(C(F)(F)F)n3)CC2)cc1,9.47
23,O=C(c1ccccc1)N1CCN(c2ccccc2F)CC1,9.77
24,CC(CN1CCCCC1)OC(=O)c1cc2ccccc2o1.Cl (stereo not drawn),9.02

row,SMILES,"hERG current change (%, negative = inhibition) at 1uM [%]"
1,CC(=O)c1cccc(NC(=O)C2CCCC2)c1,2.48
2,O=C1[C@H]2[C@@H](c3ccc(Cl)cc3)N3C(=O)N(c4cccc(Br)c4)C(=O)[C@@]3(Cc3ccc(Cl)cc3)[C@H]2C(=O)N1C1CCCCC1,0.754
3,C/C(=N\NC(=O)c1sccc1C)c1ccncc1,11.7
4,Cc1cccc(OCCCn2c(=O)sc3ccccc32)c1,9.12
5,CCOC(=O)c1cc(NC(=O)Nc2ccccc2OC)c(C)nc1C,1.84
6,Cc1ccc(CNC(=O)C2CCCN2C(=O)NCc2ccccc2)cc1 (stereo not drawn),10.4
7,COc1cc(CCC(=O)Nc2sccc2C#N)cc(OC)c1OC,12.4
8,CCOc1cc(C2Nc3ccccc3C(=O)N2c2ccccc2)c(Br)cc1OCC(=O)O (stereo not drawn),-6.86
9,O=C(NCc1cccs1)C(=O)c1cn(CC(=O)N2CCCC2)c2ccccc12,7.67
10,O=C(c1cccc([N+](=O)[O-])c1)N1CCCN(C(=O)c2cccc([N+](=O)[O-])c2)CC1,-23.2
11,O=C(COC(=O)c1ccc(Br)o1)Nc1ccc(S(=O)(=O)N2CCCC2)cc1,-3.67
12,Cc1ccc(N(CC(=O)NC(C)(C)C)C(=O)CNC(=O)c2cccs2)cc1C,13.9
13,O=C(/C=C/c1ccc2c(c1)OCO2)NCC1CCCO1 (stereo not drawn),9.86
14,O=C(CSCc1ccc(Br)cc1)NC1CC1,12.4
15,CCC(C)NC(=O)c1cc2c(=O)n3ccccc3nc2s1 (stereo not drawn),5.04
16,O=C(c1ccc(NC2=NC3CS(=O)(=O)CC3S2)cc1)N(CCO)Cc1ccccc1 (stereo not drawn),26.5
17,O=C(COc1ccc([N+](=O)[O-])cc1)Nc1cc(C(=O)O)cc(C(=O)O)c1,10.6
18,Cc1ccc2c(COC(=O)C34CC5CC(CC(C5)C3)C4)cc(=O)oc2c1,7.73
19,O=C1CCCc2c1nc(-c1ccccc1F)n2O,8.8
20,CC(=O)N/C(=C\c1ccccc1)C(=O)OCC(=O)Nc1cc(S(=O)(=O)N(C)C)ccc1C,11.8
21,CC1=C(C(=O)Nc2ccccc2)C(c2ccc(C)o2)n2c(s/c(=C/c3ccccc3)c2=O)=N1 (stereo not drawn),12.4
